The supplement of paper PMC3724861
Some of the results follow.

tested on: T1, Caupolican (Caup) homeodomain DNA-binding domain; test: PBM E-score (8-mer, recovered from the published 9-mer minima) (E-score (dimensionless, -0.5 to 0.5)); Drosophila protein; higher = stronger relative binding preference, active = 0.31 or more
T1 sequence: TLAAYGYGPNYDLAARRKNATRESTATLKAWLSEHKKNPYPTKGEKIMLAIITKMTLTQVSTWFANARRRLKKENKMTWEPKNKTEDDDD
Method in brief: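 An enrichment score, with higher meaning stronger, expresses relative binding preference for each short DNA word. The protein used was Caup's homeodomain DNA-binding domain (residues 214-303), produced by in vitro transcription and translation and tested at 100 nM on custom-designed protein binding microarrays. The 8-mer values were recovered from published 9-mer scores, each equal to the lower of its two constituent 8-mer scores.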

PBM E-score, ≥ 0.0589:
TGAAAGCA

PBM E-score, ≥ 0.0807:
TCGGAAAA

PBM E-score, active:
ATGTATTG 0.344, ATGTATGA 0.352, AATGACAA 0.346

PBM E-score, ≥ -0.047:
ATAGGGCA

PBM E-score, inactive:
AAATCGAG -0.0744, ACCAGGGG -0.212, ATACGAAA 0.134, CCGCCCGA -0.152, GACCCACA -0.0733, ACAATTCG 0.163, AGATGTTC 0.286, CGGCACAA 0.00537, AAATCCGC -0.066, AAATACGC 0.0502, AAGTCTTC -0.0607, ATTCAGCG -0.0867, CAAGCCAC -0.14, AGACCCTA -0.0889, CATTTTTC 0.143, AACAATAC 0.244, ATTACAAA 0.259, TCACCACA 0.0513, CAGGTATC 0.134, AATTCCTG 0.0715, CAGACAGC -0.0168, GTGCGTAA 0.00367, ACAAGAGC 0.168, GTCTCATA 0.0899, TGGAACAA 0.209, CTTCGCAC -0.0448, AGTTACGG -0.0308, AATGCGCA 0.0385, AATTGACA 0.203, CGTAGGGC -0.165, AGCCTAGA -0.0778, TCCCTCCA -0.187, ACGCCGCA -0.12, CATAGAAG 0.12, AACTAACC 0.137, ATTGTCAA 0.183, CGAGAGCC -0.232, CAGTTACC 0.0281, ACGGGACT -0.0525, GATAAATC -0.0135, AAAAGCGC -0.076, GAAATGGC -0.164, TCATTCCA 0.0323, GTGCCGCA -0.121, TCGAGGCA -0.0839, CAATGGCG -0.144, AGCTCGAA -0.141, AAGTATAA 0.115, ACGGCACC -0.189, GCCCACAA -0.174, CATTCCTA 0.0424, ACTCCTTA -0.067, TCGAATCA 0.0594, AATACTGC -0.0125, CAGCCGGA -0.0402, CAACCCGA -0.0228, CGTTTCGA 0.0154, ACGTGGCC -0.139, ATTAATTA 0.218, AGGAGTGA -0.0269, AAACTACC 0.168, AGAGGGGG -0.383, AAACACGG 0.257, ACGCGAAG 0.0134, ACATTGTG 0.229, ACATGGCA 0.307, AACCCCAT -0.0114, CAAGCACG 0.0458, GCGGCGTA -0.0911, AACCCCAC -0.131, GACTCCCC -0.259, CCCGTCCG -0.302, ACTCCAGC -0.185, CCAATCCA -0.043, GCGACAGC -0.0556, AAGATGCT 0.00975, AAGAATGA 0.103, TCTTCCCA -0.106, AACCTTGT 0.207, CGCTAGCG -0.261, CAGGGGTA -0.133, ACCACTAG 0.0829, CGGCCCAG -0.277, CCTCGACG -0.188, AGGGTTGG -0.0294, CAATTTTA 0.0719, TACCGATA 0.065, AATTGTCT 0.111, CGAACTCC 0.00427, CAACCCCG -0.147, GCCTCAGA -0.161, AACCCAGC -0.153, GCGGACAC -0.0411, GCCTATAA -0.0055, AGAATTTG 0.0543, GTGTCAAC 0.272, AAAGCTGG -0.142, TATATCCA 0.091, AACCAGGG -0.0676, ATGCAACA 0.277, CACAGTCG -0.00664, CATTCAAA 0.0764, AGCTCCCG -0.243, ATATATAC 0.181, GCTCCGTA -0.155, GTAGGAAA 0.0479, CTGAGCCA -0.172, ACGATCAG 0.0119, GTAACCTA 0.112, GCTCCAAC -0.0892, AACATCTC 0.254, AAACTTTG 0.113, GGGCCCTA -0.27, GGCGTCAC -0.217, AACGAAAC 0.131, TACTCATA 0.14, CCTAAAAC -0.07, AGGATTAC 0.125, ATCGCCAC -0.0796, CTTCCACA -0.0269, GGTCTGGA -0.118, ACGAGCTA 0.0174, GAAATCCC -0.0261, ATGTTAAG 0.283, GGACACCA 0.0485, GAGCACTC -0.102, CTTGATAC 0.182, GCCATAAC 0.0397, AAGCGCAC -0.125, CAGGCGCC -0.205, GGCAACTA 0.0502, CAACATCG 0.228, ACGGGTAT 0.0804, GATAAACA 0.205, CGGATCAG -0.0772, ACATAGGG 0.0944, GCTTTACA 0.188, ACGTTTAA 0.169, ATCTTTGC 0.0423, CAACGTTG 0.134, GGCGTCCA -0.199, AATTCGGA 0.0276, CTCGTTAA 0.0879, AGTCAAAC 0.0338, GCAAACAA 0.194, CAAGTAAC 0.246, GCACTCTA -0.0337, CCCATTGA -0.15, GCCATCAC -0.0783, AACGAGTT 0.048, CAACTAAA 0.187, AAGTGTCC 0.011, AACTAGTA 0.245, AGAATACT 0.169, CCCAGAAG -0.175, CAACCAGA 0.0903, AGCCTTGG -0.0907, GTAAACAC 0.23, AGTTAACA 0.265, CACTTTCA -0.0347, TATGAATA 0.154, GACCGTCA -0.128, GCATGACC -0.0695, AACAGCAT 0.175, CCATACCG -0.0624, ATGCATTC 0.102, GCTCCGCA -0.155, AATGACCA -0.00469, AGTTCGAC 0.0205, CGTGCACA 0.0809, CATAGCCG -0.0066, ACCACTAC 0.0289, GTGCTAAA 0.0242, GCAACTTA 0.0827, CCCTCGAA -0.101, AGTACTTA 0.094, ATAAGGTC -0.0166, ACGGGATA 0.0992, CCCAGGAG -0.205, CCAGGGCA -0.226, CAGAACAA 0.305, CCTCGAGC -0.204, AGCGAACT 0.0174, GACATATC 0.256, AGCCAACG -0.142, ACAATACA 0.305, CGGGTCCA -0.0964, AGGGTGCG -0.187, GCGTCGCA -0.119, CACAAATA 0.158, CGATACAA 0.207, AGAGAGCA -0.13, ACCAATAC 0.183, TTAACAAA 0.169, CGCCGTAG -0.118, GGCGAACC -0.223, CAAAACTC -0.0395, ACTTATGC -0.0143, GAGATATC 0.0615, TCCCGCGA -0.195, TGATGACA 0.279, CGAATTAC 0.0648, GCCCGCTA -0.214, CGAGTTCC 0.0685, TAATCATA 0.166, GAAACTGC -0.184, CCCCATTC -0.157, GGAGGTAC -0.0425, AAGGCCAC -0.181, AGGAGCGG -0.266, GCCGGGAC -0.202, GACGCCGA -0.0749, CCACCAGC -0.0942

PBM E-score, ≥ 0.0331:
ATGCCACA

PBM E-score, ≥ -0.104:
CCGCGCGG

PBM E-score, ≥ 0.0337:
CGAGGCTA

PBM E-score, ≥ 0.00505:
ACCGTCAT

PBM E-score, ≥ 0.0447:
ACCTAAGT

PBM E-score, ≥ 0.211:
AGTACCTA
